Reference: the supplement of paper PMC4604168 (melanoma cell lines)
This is one part of the list. Many values rest on one well or one pass, so single values are uncertain.
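Further: cells treated in 1,536-well plates, then fixed and DAPI-stained, with nuclei counted from automated high-throughput microscope images.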

What follows are compounds tested on G361 (assay: cell count relative to DMSO control; melanoma cells; higher = more viable cells). Details: library dose: standard library concentration; 72 h.
In the case of `COc1cc([C@@H]2c3cc4c(cc3[C@@H](O[C@@H]3O[C@@H]5CO[C@@H](C)O[C@H]5[C@H](O)[C@H]3O)[C@H]3COC(=O)[C@H]23)OCO4)cc(OC)c1O` [etoposide] + NC(=O)Nc1cc(-c2cccc(F)c2)sc1C(=O)N[C@H]1CCCNC1 [AZD7762] (first compound 0.1 µM, partner dose 0.1 µM), the cell count was 90.5%.
Work on `CCN(CC)CCNC(=O)c1c(C)[nH]c(/C=C2\C(=O)Nc3ccc(F)cc32)c1C` [sunitinib] + Nc1ccn([C@@H]2O[C@H](CO)[C@@H](O)C2(F)F)c(=O)n1 [gemcitabine] (first compound 2 µM, partner dose 0.002 µM) yielded a cell count of 49.7%.
`C[C@]1(O)C[C@@H](c2nc(-c3ccc4ccc(-c5ccccc5)nc4c3)c3c(N)nccn32)C1` + O=C(O)c1ccc2c(c1)nc(Nc1cccc(Cl)c1)c1ccncc12 [CX4945] (first compound 2 µM, partner dose 2 µM) was tested, and the cell count was 50.5%.
In the case of `COc1cc([C@@H]2c3cc4c(cc3[C@@H](O[C@@H]3O[C@@H]5CO[C@@H](C)O[C@H]5[C@H](O)[C@H]3O)[C@H]3COC(=O)[C@H]23)OCO4)cc(OC)c1O` [etoposide] + CS(=O)(=O)c1ccc(C(=O)Nc2ccc(Cl)c(-c3ccccn3)c2)c(Cl)c1 [vismodegib] (first compound 0.1 µM, partner dose 5 µM), the cell count was 97.5%.
`Cn1cnc2c(F)c(Nc3ccc(Br)cc3Cl)c(C(=O)NOCCO)cc21` [selumetinib] + COC(=O)c1sccc1S(=O)(=O)Nc1ccc(Nc2ccccc2)cc1OC [GSK0660] (first compound 0.075 µM, partner dose 5 µM) was tested, and the cell count was 67.4%.
`CCN(CC)CCNC(=O)c1c(C)[nH]c(/C=C2\C(=O)Nc3ccc(F)cc32)c1C` [sunitinib] + COc1cc(Nc2ncc(F)c(Nc3ccc4c(n3)NC(=O)C(C)(C)O4)n2)cc(OC)c1OC [Tamatinib] (first compound 2 µM, partner dose 2 µM) showed a cell count of 66.6%.
With `Cn1cnc2c(F)c(Nc3ccc(Br)cc3Cl)c(C(=O)NOCCO)cc21` [selumetinib] + CC(C)(C)c1cnc(CSc2cnc(NC(=O)C3CCNCC3)s2)o1 [SNS-032] (first compound 0.075 µM, partner dose 0.05 µM) the cell count was 56.5%.
`C[C@]1(O)C[C@@H](c2nc(-c3ccc4ccc(-c5ccccc5)nc4c3)c3c(N)nccn32)C1` + CCN(CC)CCNC(=O)c1c(C)[nH]c(/C=C2\C(=O)Nc3ccc(F)cc32)c1C [sunitinib] (first compound 2 µM, partner dose 2 µM) was tested, and the cell count was 65%.
`COc1cc([C@@H]2c3cc4c(cc3[C@@H](O[C@@H]3O[C@@H]5CO[C@@H](C)O[C@H]5[C@H](O)[C@H]3O)[C@H]3COC(=O)[C@H]23)OCO4)cc(OC)c1O` [etoposide] + O=C(Nc1cccc(Cl)c1)Nc1ncc(CCNc2ncnc3ccsc23)s1 [SNS314] (first compound 0.1 µM, partner dose 0.004 µM) was tested, and the cell count was 65%.
Work on `CCN(CC)CCNC(=O)c1c(C)[nH]c(/C=C2\C(=O)Nc3ccc(F)cc32)c1C` [sunitinib] + CCCS(=O)(=O)Nc1ccc(F)c(C(=O)c2c[nH]c3ncc(Cl)cc23)c1F [PLX4720] (first compound 2 µM, partner dose 0.4 µM) yielded a cell count of 66%.
Work on `C[C@]1(O)C[C@@H](c2nc(-c3ccc4ccc(-c5ccccc5)nc4c3)c3c(N)nccn32)C1` + Nc1cccc2c1CN(C1CCC(=O)NC1=O)C2=O [lenalidomide] (first compound 2 µM, partner dose 5 µM) yielded a cell count of 81.4%.
Work on `Cn1cnc2c(F)c(Nc3ccc(Br)cc3Cl)c(C(=O)NOCCO)cc21` [selumetinib] + CCc1ccc(CCOc2ccc(CC3SC(=O)NC3=O)cc2)nc1 [pioglitazone] (first compound 0.075 µM, partner dose 10 µM) yielded a cell count of 67.8%.
`CCN(CC)CCNC(=O)c1c(C)[nH]c(/C=C2\C(=O)Nc3ccc(F)cc32)c1C` [sunitinib] + CCCCCCCCc1ccc(CCC(N)(CO)CO)cc1 [fingolimod] (first compound 2 µM, partner dose 10 µM) gave a cell count of 1.38%.
`CCN(CC)CCNC(=O)c1c(C)[nH]c(/C=C2\C(=O)Nc3ccc(F)cc32)c1C` [sunitinib] + NCC(=O)Nc1ccc(-n2nc(C(F)(F)F)cc2-c2ccc3c(ccc4ccccc43)c2)cc1 [OSU03012] (first compound 2 µM, partner dose 5 µM) showed a cell count of 35%.
